# Measured values taken from PubChem BioAssay AID463173 (ICCB-Longwood Screening Facility, Harvard Medical School, 2010).
# In all, about 52,000 compounds went through this assay and about 1,700 (3.3%) were called active. No stated cut-off is given here; in the data, active means survival mostly below about 52% (no sharp cut-off); inactive means mostly above about 56%. The list shows a part of the results.
# Test system: Wild type
# Assay: S. aureus survival, RN4220 and DeltatarO strains – OD600, teichoic acid synthesis inhibitors, primary screen (AID 463173)
# Conditions: S. aureus RN4220 wild type/DeltatarO growth, OD600, 18 h, hits give low values, screened at 18.75 µg/mL (by protocol)
row,SMILES,survival
1,COCc1cc(C)nc2sc3c(c12)NC(c1ccc(O)c(OC)c1)N(c1ccccc1)C3=O (stereo not given),inactive: 79%
2,COc1ccc(OCC(=O)N(Cc2cccs2)c2ccc(OC)cc2)cc1,inactive: 85%
3,CC(C)c1ccc(CNc2nc(-c3ccco3)nn2C(=O)c2ccc([N+](=O)[O-])cc2)cc1,inactive: 87%
4,CSCCC(NS(=O)(=O)c1ccc2c(c1)oc(=O)n2C)C(=O)Nc1ccc(Cl)cc1 (stereo not given),inactive: 93%
5,COc1ccc(NC(=O)Cn2c(=O)n(Cc3ccc4c(c3)OCO4)c(=O)c3ccc(C(=O)NC4CCCCC4)cc32)cc1,inactive: 74%
6,CCn1c(C)c(C)c2cc(C(=O)NCc3ccc(OC(C)C)cc3)ccc21,inactive: 72%
7,COc1ccc2c(c1)cc1c(=O)n(CC(=O)NCCCOC(C)C)nc(C)n12,inactive: 79%
8,CCOCCCNc1nc2ccccc2n2c(CC)nnc12,inactive: 124%
9,COc1ccc(-c2noc(N3CCC(C(=O)N4CCN(c5ccccc5F)CC4)CC3)n2)cc1,inactive: 108%
10,COc1ccc2occ(C(=O)c3coc4ccc(O)c(CN(C)C)c34)c2c1,inactive: 109%
11,COc1ccc(Cl)cc1S(=O)(=O)Nc1cccc(-c2ccc(N3CCCC3)nn2)c1,inactive: 66%
12,COc1ccc(-c2cn3nc(N4CCCC(C(=O)Nc5ccccc5OC)C4)sc3n2)cc1 (stereo not given),inactive: 135%
13,COc1ccccc1NC(=O)CSc1nc(-c2ccc(C)cc2)nc2c1Cc1c(CO)cnc(C)c1O2,inactive: 83%
14,Cc1nn2c(=O)cc(COC(=O)c3ccc(NC(=O)c4cccc(Br)c4)cc3)nc2s1,inactive: 113%
15,CCCN1C2CCCC1CC(NC(=O)NC1CCCCC1)C2 (stereo not given),inactive: 99%
16,Cc1ccc(Cl)cc1NC(=O)CN1C(=O)CSc2ccc(S(=O)(=O)N3CCCC3)cc21,inactive: 92%
17,C=CCn1cc(/C=C2\SC(=O)N(C)C2=O)c2ccccc21,inactive: 119%
18,COC(=O)c1ccccc1NC(=O)Cn1c(=O)n(CCC(=O)NCc2ccccc2OC)c(=O)c2ccccc21,inactive: 92%
19,Cc1cccc(NC(=O)CCN2CCN(c3ccccc3F)CC2)c1,inactive: 131%
20,CCOC(=O)c1c(S(=O)(=O)NCC(=O)N2CCN(c3cc(C)ccc3C)CC2)c(C)n(C)c1C,inactive: 82%
21,CCCN(C(=O)Cn1ncc2c1-c1ccccc1OC2)c1cccc(C)c1,inactive: 65%
22,Cc1cccc(N2CCN(c3ccc(C(=O)O)cc3NC(=O)c3cccc(Cl)c3)CC2C)c1 (stereo not given),inactive: 82%
23,CCc1ccc(-c2nc(SCC(=O)NCC3CCCO3)c(-c3ccc(C)cc3)[nH]2)cc1 (stereo not given),inactive: 86%
24,Cc1cccc(C)c1NC(=O)Cn1c(=O)n(CCCS(=O)(=O)C2CCCCC2)c(=O)c2ccccc21,inactive: 66%
25,CCOCCc1nn2c(=O)cc(COC(=O)Cc3ccccc3)nc2s1,active: -1%
26,CCOC(=O)C1CCN(c2c(C(=O)c3ccc(OC)cc3)cnc3ccccc23)CC1,inactive: 125%
27,COc1ccc(CCNC(=O)c2nc(SCc3ccccc3F)ncc2Cl)cc1OC,inactive: 84%
28,O=C(CSc1nccn1C1CCCC1)Nc1cccc(F)c1,inactive: 126%

row,SMILES,survival
1,CSCC[C@@H](C(=O)Nc1cccc(F)c1)N1Cc2ccccc2C1=O,inactive: 80%
2,CCOC(=O)c1cc2c(=O)n3ccccc3nc2n(Cc2ccco2)c1=NC(=O)c1ccc(C)c(C)c1,inactive: 60%
3,CN(c1ccccc1)S(=O)(=O)c1nnc(NC(=O)COc2ccccc2)s1,inactive: 72%
4,O=C(Cn1c(=O)oc2cc(S(=O)(=O)N3CCCCCC3)ccc21)Nc1ccc(F)cc1F,inactive: 89%
5,O=C(Nc1cc2c(cc1C(=O)c1cccc(Br)c1)OCCO2)c1ccccc1F,inactive: 56%
6,CN(C(=O)Cn1cnc2onc(-c3ccc(F)cc3)c2c1=O)c1ccccc1Cl,inactive: 71%
7,Cc1cc(C)cc(-n2c(C)cc(C(=O)C(=O)Nc3nnc(C)s3)c2C)c1,inactive: 101%
8,Cc1ccc(-n2c(=O)c3ccc(C(=O)NCc4ccco4)cc3n(CC(=O)Nc3ccccc3C(F)(F)F)c2=O)cc1,inactive: 87%
9,CCOc1ccccc1CNC(=O)c1ccc(NC(=O)N2CC(C)Sc3ccccc32)cc1 (stereo not given),inactive: 77%
10,CCOc1ccc(C(=O)NCc2nc3cccnc3n2Cc2cccc(OC)c2)cc1,inactive: 72%
11,COc1ccc2cc3c(N)c(C(=O)Nc4ncc(C)s4)sc3nc2c1,inactive: 105%
12,CCCN(CCC)C(=O)Cn1c(SCc2cccc(C(F)(F)F)c2)nc2cccnc21,inactive: 80%
13,O=C(NC1(C(F)(F)F)C(=O)Nc2c1c(=O)[nH]c(=O)n2-c1ccccc1)c1ccccc1 (stereo not given),inactive: 85%
14,CN1CCN(C(=O)c2ccc(C3SCC(=O)N3Cc3ccco3)cc2)CC1 (stereo not given),inactive: 104%
15,CCOC(=O)c1[nH]c(=O)[nH]c1CSc1ccccn1,inactive: 111%
16,N#Cc1ccccc1NC(=O)C(=O)NCCc1csc2nc(-c3cccc(F)c3)nn12,inactive: 81%
17,Cc1cccc(NC(=O)N2CCN(C)c3ncccc32)c1C,inactive: 92%
18,COc1ccc(OC)c(CNC(=O)CN(c2ccc(C)cc2)S(=O)(=O)N(C)C)c1,inactive: 80%
19,O=S(=O)(Nc1cccc(-c2ccc(N3CCCC3)nn2)c1)c1cc(F)ccc1F,inactive: 79%
20,CCOc1ccc(S(=O)(=O)Nc2ccc(OC)c(Cl)c2)c2cccnc12,inactive: 70%
21,Cc1cccc(OCCSc2nc3ccccc3n2CC(=O)N2CCOCC2)c1C,inactive: 75%
22,CCOc1ccc(C2C(C(N)=O)=C(C)Nc3nc(-c4cccc(Cl)c4)nn32)cc1OC (stereo not given),inactive: 94%
23,Cc1ccc(NC(=O)C2CCCN(S(=O)(=O)c3c(C)nn(C)c3C)C2)c(C)c1 (stereo not given),inactive: 76%
24,CCN1C(=O)c2ccccc2S(=O)c2ccc(C(=O)NCc3ccccc3OC)cc21 (stereo not given),inactive: 82%
25,CCOC(=O)N1CCN(Cc2nc3cc(NC(=O)c4ccc([N+](=O)[O-])cc4)ccc3n2C(C)C)CC1,inactive: 84%
26,CCCCCOc1ccc(NC(=O)Cn2c(-c3cncs3)nc3ccccc32)cc1,inactive: 97%
27,CC(=O)NC(NC(C)=O)c1ccccc1,inactive: 103%
